# In the supplement of paper PMC8728848:
# The other results are listed elsewhere or left out.
# B1: Siglec-F (Mus musculus), Q920G3 (protein)
# chain: MRWAWLLPLLWAGCLATDGYSLSVTGSVTVQEGLCVFVACQVQYPNSKGPVFGYWFREGANIFSGSPVATNDPQRSVLKEAQGRFYLMGKENSHNCSLDIRDAQKIDTGTYFFRLDGSVKYSFQKSMLSVLVIALTEVPNIQVTSTLVSGNSTKLLCSVPWACEQGTPPIFSWMSSALTSLGHRTTLSSELNLTPRPQDNGTNLTCQVNLPGTGVTVERTQQLSVIYAPQKMTIRVSWGDDTGTKVLQSGASLQIQEGESLSLVCMADSNPPAVLSWERPTQKPFQLSTPAELQLPRAELEDQGKYICQAQNSQGAQTASVSLSIRSLLQLLGPSCSFEGQGLHCSCSSRAWPAPSLRWRLGEGVLEGNSSNGSFTVKSSSAGQWANSSLILSMEFSSNHRLSCEAWSDNRVQRATILLVSGPKVSQAGKSETSRGTVLGAIWGAGLMALLAVCLCLIFFTVKVLRKKSALKVAATKGNHLAKNPASTINSASITSSNIALGYPIQGHLNEPGSQTQKEQPPLATVPDTQKDEPELHYASLSFQGPMPPKPQNTEAMKSVYTEIKIHKC
# Columns and labels:
# Test in all cases: glycan array binding signal (z-score within array); higher = stronger binding
# Settings in all cases: glycan notation: IUPAC condensed, linker removed
# [1] = molecular target: Gal(b1-4)GlcNAc(b1-3)Gal(b1-4)[Fuc(a1-3)]GlcNAc(b1-3)Gal(b1-4)[Fuc(a1-3)]GlcNAc
# In short: (§1)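 The binding signal is a Z-score computed within each array and averaged over linkers. Arrays of the same protein sequence at different concentrations or buffers were also averaged together. Data originate from 3228 arrays in the Consortium for Functional Glycomics database, kept only where the protein sequence was available.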
# [2] = molecular target: Gal(b1-4)GlcNAc(b1-3)GalNAc
# In short: as §1
# [3] = molecular target: Gal(b1-4)GlcNAc(b1-3)[Fuc(a1-3)GlcNAc(b1-6)]Gal(b1-4)Glc
# In short: as §1
# [4] = molecular target: Gal(b1-4)GlcNAc(b1-3)[Gal(b1-4)GlcNAc(b1-6)]Gal(b1-4)GlcNAc
# In short: as §1
# [5] = molecular target: Gal(b1-4)GlcNAc(b1-3)[Gal(b1-4)GlcNAc(b1-6)]GalNAc
# In short: as §1
# [6] = molecular target: Gal(b1-4)GlcNAc(b1-3)[GlcNAc(b1-6)]Gal(b1-4)GlcNAc
# In short: as §1
# [7] = molecular target: Gal(b1-4)GlcNAc(b1-6)Gal(b1-4)GlcNAc
# In short: as §1
# [8] = molecular target: Gal(b1-4)GlcNAc(b1-6)GalNAc
# In short: as §1
# [9] = molecular target: Gal(b1-4)GlcNAc(b1-6)[Gal(b1-3)]GalNAc
# In short: as §1
# [10] = molecular target: Gal(b1-4)GlcNAc(b1-6)[Gal(b1-4)GlcNAc(b1-3)]GalNAc
# In short: as §1
# Gal(b1-4)GlcNAc6P = molecular target: Gal(b1-4)GlcNAc6P
# In short: as §1
# Gal(b1-6)Gal = molecular target: Gal(b1-6)Gal
# In short: as §1
# Gal3S(b1-3)GalNAc = molecular target: Gal3S(b1-3)GalNAc
# In short: as §1
# Gal3S(b1-3)GlcNAc = molecular target: Gal3S(b1-3)GlcNAc
# In short: as §1
# [11] = molecular target: Gal3S(b1-3)[Fuc(a1-4)]GlcNAc
# In short: as §1
# Gal3S(b1-4)Glc = molecular target: Gal3S(b1-4)Glc
# In short: as §1
# Gal3S(b1-4)Glc6S = molecular target: Gal3S(b1-4)Glc6S
# In short: as §1
# Gal3S(b1-4)GlcNAc = molecular target: Gal3S(b1-4)GlcNAc
# In short: as §1
# Gal3S(b1-4)GlcNAc6S = molecular target: Gal3S(b1-4)GlcNAc6S
# In short: as §1
# [12] = molecular target: Gal3S(b1-4)[Fuc(a1-3)]Glc
# In short: as §1
# [13] = molecular target: Gal3S(b1-4)[Fuc(a1-3)]Glc6S
# In short: as §1
# [14] = molecular target: Gal3S(b1-4)[Fuc(a1-3)]GlcNAc
# In short: as §1
# [15] = molecular target: Gal3S(b1-4)[Fuc(a1-3)]GlcNAc6S
# In short: as §1
# Gal3S4S(b1-4)GlcNAc = molecular target: Gal3S4S(b1-4)GlcNAc
# In short: as §1
# Gal3S6S(b1-4)GlcNAc = molecular target: Gal3S6S(b1-4)GlcNAc
# In short: as §1
# Gal3S6S(b1-4)GlcNAc6S = molecular target: Gal3S6S(b1-4)GlcNAc6S
# In short: as §1
# Gal4S(b1-4)GlcNAc = molecular target: Gal4S(b1-4)GlcNAc
# In short: as §1
# Gal4S6S(b1-4)GlcNAc = molecular target: Gal4S6S(b1-4)GlcNAc
# In short: as §1
# Gal6P(b1-4)GlcNAc = molecular target: Gal6P(b1-4)GlcNAc
# In short: as §1
# Gal6S(b1-3)GlcNAc = molecular target: Gal6S(b1-3)GlcNAc
# In short: as §1
binder,measurement,setting,value
B1,glycan array binding signal (z-score),[1],-0.11
same,glycan array binding signal (z-score),[2],-0.123
same,glycan array binding signal (z-score),[3],-0.166
same,glycan array binding signal (z-score),[4],-0.06
same,glycan array binding signal (z-score),[5],-0.09
same,glycan array binding signal (z-score),[6],-0.111
same,glycan array binding signal (z-score),[7],-0.096
same,glycan array binding signal (z-score),[8],-0.103
same,glycan array binding signal (z-score),[9],-0.124
same,glycan array binding signal (z-score),[10],-0.025
same,glycan array binding signal (z-score),Gal(b1-4)GlcNAc6P,-0.111
same,glycan array binding signal (z-score),Gal(b1-6)Gal,-0.116
same,glycan array binding signal (z-score),Gal3S(b1-3)GalNAc,-0.121
same,glycan array binding signal (z-score),Gal3S(b1-3)GlcNAc,-0.108
same,glycan array binding signal (z-score),[11],-0.133
same,glycan array binding signal (z-score),Gal3S(b1-4)Glc,-0.121
same,glycan array binding signal (z-score),Gal3S(b1-4)Glc6S,-0.097
same,glycan array binding signal (z-score),Gal3S(b1-4)GlcNAc,-0.125
same,glycan array binding signal (z-score),Gal3S(b1-4)GlcNAc6S,-0.09
same,glycan array binding signal (z-score),[12],-0.09
same,glycan array binding signal (z-score),[13],0.156
same,glycan array binding signal (z-score),[14],-0.142
same,glycan array binding signal (z-score),[15],-0.142
same,glycan array binding signal (z-score),Gal3S4S(b1-4)GlcNAc,-0.113
same,glycan array binding signal (z-score),Gal3S6S(b1-4)GlcNAc,-0.115
same,glycan array binding signal (z-score),Gal3S6S(b1-4)GlcNAc6S,-0.104
same,glycan array binding signal (z-score),Gal4S(b1-4)GlcNAc,-0.113
same,glycan array binding signal (z-score),Gal4S6S(b1-4)GlcNAc,-0.113
same,glycan array binding signal (z-score),Gal6P(b1-4)GlcNAc,-0.144
same,glycan array binding signal (z-score),Gal6S(b1-3)GlcNAc,-0.099
